From article PMC4336329 (PLoS ONE, 2015)
About 14,000 (4.5%) of roughly 310,000 compounds showed an effect of 50% or more. Effects have a minus sign here. Some of the results follow.

biological target: human ether-à-go-go-related gene (hERG) potassium channel (human, UniProt Q12809); test: primary screen, population patch clamp on CHO cells stably expressing hERG
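Note: peak tail current of the secondary pulse compared with the same well before compound.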

Sequence of human ether-à-go-go-related gene (hERG) potassium channel (Q12809 whole entry, looked up): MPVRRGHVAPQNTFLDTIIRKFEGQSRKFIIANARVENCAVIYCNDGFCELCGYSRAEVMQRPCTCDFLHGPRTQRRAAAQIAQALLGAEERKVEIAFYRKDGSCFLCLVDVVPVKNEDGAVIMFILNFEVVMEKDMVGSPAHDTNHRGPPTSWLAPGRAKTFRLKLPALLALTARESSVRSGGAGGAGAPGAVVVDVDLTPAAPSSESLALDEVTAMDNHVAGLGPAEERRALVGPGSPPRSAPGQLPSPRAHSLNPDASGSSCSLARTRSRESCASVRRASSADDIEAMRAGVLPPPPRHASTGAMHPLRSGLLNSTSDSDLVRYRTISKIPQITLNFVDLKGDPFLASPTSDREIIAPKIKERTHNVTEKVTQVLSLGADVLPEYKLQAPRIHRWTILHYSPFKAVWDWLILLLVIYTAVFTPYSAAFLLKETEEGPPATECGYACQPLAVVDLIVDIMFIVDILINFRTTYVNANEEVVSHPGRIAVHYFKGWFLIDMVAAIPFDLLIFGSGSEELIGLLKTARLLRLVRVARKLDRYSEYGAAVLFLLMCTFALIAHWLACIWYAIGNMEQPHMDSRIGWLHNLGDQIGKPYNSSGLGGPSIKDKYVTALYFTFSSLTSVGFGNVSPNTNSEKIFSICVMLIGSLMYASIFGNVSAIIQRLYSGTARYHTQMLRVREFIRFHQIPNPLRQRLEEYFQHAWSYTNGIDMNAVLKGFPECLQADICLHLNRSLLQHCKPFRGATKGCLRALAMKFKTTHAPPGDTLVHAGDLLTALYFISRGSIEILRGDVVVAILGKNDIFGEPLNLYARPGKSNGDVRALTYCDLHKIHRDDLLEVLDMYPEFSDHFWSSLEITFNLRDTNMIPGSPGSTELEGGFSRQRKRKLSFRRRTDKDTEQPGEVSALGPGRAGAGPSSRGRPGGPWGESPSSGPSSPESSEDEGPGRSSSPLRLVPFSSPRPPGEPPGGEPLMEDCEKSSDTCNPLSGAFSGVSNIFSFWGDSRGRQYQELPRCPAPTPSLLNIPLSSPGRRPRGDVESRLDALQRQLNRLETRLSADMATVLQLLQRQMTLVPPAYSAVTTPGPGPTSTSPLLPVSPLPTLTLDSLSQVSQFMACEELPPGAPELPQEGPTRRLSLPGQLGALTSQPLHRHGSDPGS

Row | Structure (SMILES) | hERG current change (%, negative = inhibition) at 10uM [%]
1 | O=C1CC(SC(=NCc2ccc3c(c2)OCO3)Nc2ccccc2)C(=O)N1 (stereo not shown) | 4.04
2 | N#CC[N+]1(CCCNP2(=O)C=C(c3ccccc3)OC(c3ccccc3)=C2)CCOCC1.[Cl-] | -63.5
3 | COC(=O)c1ccc(-n2c(C)nc3ccccc3c2=O)cc1 | 6.39
4 | CC(=O)Nc1ccc(S(=O)(=O)Oc2ccc(/C=N/NC(=O)c3ccc(Cl)cc3)cc2)cc1 | 16.6
5 | COc1ccc(C2C(C(=O)N3CCCC3)c3cc(OC)c(OC)cc3C(=O)N2C)cc1OC (stereo not shown) | 0.414
6 | c1ccc(Cc2nnc3sc(-c4ccncc4)nn23)cc1 | -27.4
7 | COc1ccc(C2=NN(C(=O)c3cccc([N+](=O)[O-])c3)C(c3cccc([N+](=O)[O-])c3)C2)cc1 (stereo not shown) | -15.7
8 | CCCn1cc(S(=O)(=O)CC(=O)Nc2ccc(OCC)cc2)c2ccccc21 | -13.6
9 | Cn1nnc2cc(C(=O)N3CCSCC3)ccc21 | 9.56
10 | CN(C)c1ccc(N=Cc2nc(-c3ccccc3)oc2OC(=O)c2cccc(Br)c2)cc1 | -3.69
11 | O=C(NC(=S)Nc1cccc(-c2ccc(CO)o2)c1)c1cccs1 | 23.7
12 | O=C1CCN(S(=O)(=O)c2ccccc2)C2CCCCC12 (stereo not shown) | -7.54
13 | Cc1ccc(C)c(CSc2nnc(-c3cccs3)n2Cc2ccco2)c1 | -24.6
14 | Cc1oc2cc(O)ccc2c(=O)c1Oc1ccc(F)cc1 | 14.2
15 | CCn1cc(Cl)c(C(=O)Nc2cccc(C(F)(F)F)c2)n1 | -6.89
16 | Cc1cccc(Oc2sc(C(=O)c3ccccc3)c(N)c2C#N)c1 | -8.01
17 | Cc1cc(C(=O)O)c(CCCN)s1.Cl | 14.7
18 | COc1ccc(CCNC(=S)Nc2ccc(C(C)C)cc2)cc1 | 4.14
19 | COc1cccc(-c2nnc3sc(-c4cccs4)nn23)c1 | 12.3
20 | O=C(COc1ccc(-c2nnco2)cc1)N1CCN(S(=O)(=O)c2ccc3ccccc3c2)CC1 | 0.322
21 | CCc1ccc(N(C)S(=O)(=O)c2ccc3[nH]cc(C(=O)NCCN4CCOCC4)c(=O)c3c2)cc1 | -8.18
22 | O=C(CN1CCCC1=O)NC1(C(F)(F)F)NC(=O)N(Cc2ccccc2)C1=O (stereo not shown) | 13.7

Row | Structure (SMILES) | hERG current change (%, negative = inhibition) at 10uM [%]
23 | CC(C)n1c(S(=O)(=O)O)nc2ccccc21 | 22.6
24 | NS(=O)(=O)c1cccc(NC(=O)COC(=O)CCCc2c[nH]c3ccccc23)c1 | 16.4
25 | Cl.N=c1n(CCN2CCOCC2)c2ccccc2n1CC(O)COc1ccccc1 (stereo not shown) | -39.3
26 | C#CCNC(=O)C1=C[C@@H](C2CCCCC2)C[C@@H](OCCCCO)O1 | 5.41
27 | CC(=O)Nc1cccc2c1C(=O)N(c1ccc(C)cc1)C2=O | 14.3
28 | COC(=O)c1cc(Br)c(=O)n(Cc2ccc(OC)c(OC)c2)c1 | 16.6
29 | CCc1ccc(N2CN(Cc3ccco3)CNC2=S)cc1 | -0.47
30 | COc1ccc2[nH]cc(C(=O)CN(C)C)c2c1 | 9.06
31 | O=C(NNC(=O)c1cc2cc(OC(F)(F)F)ccc2[nH]1)c1ccc(Cl)cc1 | 3.34
32 | c1cnc2ccc(C(c3nnnn3C3CCCC3)N3CCN(c4nc5ccccc5s4)CC3)cc2c1 (stereo not shown) | -37
33 | CC1CC(C)(C)NC(=S)N1CCC(=O)Nc1ccc2c(c1)OCCO2 (stereo not shown) | 18.3
34 | O=C(Nc1ccc(F)cc1)OCCOc1ccc([N+](=O)[O-])cc1 | -14.9
35 | Cc1cc(C)n(-c2nc3ccccc3c(=O)n2OCc2ccc(Cl)cc2)n1 | 0.333
36 | COc1ccc([N+](=O)[O-])cc1N(CC(=O)Nc1ccccc1C(=O)N1CCOCC1)S(C)(=O)=O | -19.4
37 | O=C(c1ccccc1)c1c(-c2ccccc2)[nH]n(-c2ccccc2)c(=O)c1=O | 13
38 | CC(=O)NC(CCS(C)(=O)=O)C(=O)Nc1cc(Cl)ccc1Cl (stereo not shown) | -2.89
39 | O=C(CCl)N(c1ccccc1)C1CCCCC1 | 10.4
40 | COc1ccc(CCNC(=O)Cn2cnc3c(cnn3C(C)(C)C)c2=O)cc1OC | -0.127
41 | CN(CCO)S(=O)(=O)c1ccc2c(c1)C(=NO)c1cc(S(=O)(=O)N(C)CCO)ccc1-2 | 3.14
42 | O=c1c(F)cn(C2CCCO2)c(=O)n1Cc1c(F)cccc1Cl (stereo not shown) | -6.4
43 | COc1cccc(C(=O)Oc2ccc3ccc(=O)oc3c2)c1 | 42.3
